The whole screen tested about 220,000 compounds, of which about 16,000 (7.3%) were called active. The inconclusive results got no clear call from the source; some entries with a clear call stand among them for comparison. Calls come from the whole dose curve; as a rule, active = well fitted inhibition curve with a large enough effect (not every such curve was filed as active); inconclusive = small, poorly fitted or top-dose-only effect, or another doubt; inactive = no such curve, though single readings can be large or run the other way. A potency beside an inconclusive call is a rough fit, not a confirmed value.
Biological target: Aldehyde dehydrogenase 1A1 (Homo sapiens) (UniProt P00352)
Assay: qHTS Assay for Inhibitors of Aldehyde Dehydrogenase 1 (ALDH1A1)
Settings: Purified ALDH1A1, NADH fluorescence, propionaldehyde substrate; series mostly up to 75.3 µM
Potency is the fitted concentration of half-maximal effect; tags give direction and shape of the fitted curve.

UniProt P00352, sequence (P00352 whole entry, looked up): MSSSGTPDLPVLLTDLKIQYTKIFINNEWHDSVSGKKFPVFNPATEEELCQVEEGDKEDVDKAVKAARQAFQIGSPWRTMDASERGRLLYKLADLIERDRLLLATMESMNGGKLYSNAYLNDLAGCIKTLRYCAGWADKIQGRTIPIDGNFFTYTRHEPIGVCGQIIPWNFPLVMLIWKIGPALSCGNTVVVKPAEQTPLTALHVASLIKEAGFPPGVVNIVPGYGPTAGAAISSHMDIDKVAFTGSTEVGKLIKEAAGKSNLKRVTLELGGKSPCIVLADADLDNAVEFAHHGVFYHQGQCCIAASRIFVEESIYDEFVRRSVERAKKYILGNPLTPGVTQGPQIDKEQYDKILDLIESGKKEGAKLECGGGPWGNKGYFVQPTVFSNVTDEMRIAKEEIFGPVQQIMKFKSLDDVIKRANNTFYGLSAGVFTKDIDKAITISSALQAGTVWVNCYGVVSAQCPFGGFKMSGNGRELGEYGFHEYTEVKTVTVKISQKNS

Potency, inconclusive:
CCOC(=O)c1oc2ccccc2c1NC(=O)c1ccc(S(=O)(=O)N2CCCC2)cc1 31.6 µM [inhibitor, partial curve]
Cc1cc(=O)oc2cc(O)c(O)cc12 25.1 µM [inhibitor, partial curve]
CCCOc1ccc(C(=O)N/N=C/c2ccc(-c3ccc(S(=O)(=O)Nc4ncccn4)cc3)o2)cc1 31.6 µM [inhibitor, single point]
N#CC(C#N)=C1NC2(CCCC2)Cc2ccccc21 25.1 µM [inhibitor, single point]
CCCCN(C)CCn1c(=S)[nH]c2ccc(N3CCOCC3)cc2c1=O 39.8 µM [inhibitor, single point]
COc1cc2c(C(=O)N3CCN(C)CC3)c(CSc3ccccc3)n(C)c2cc1Br 22.4 µM [inhibitor, single point]
Cc1cccc2cc(C3CC(c4cccs4)=NN3C(=O)CCC(=O)O)c(Cl)nc12 (stereo not given) 31.6 µM [inhibitor, single point]
Cc1cccc(-c2noc(CN(C(=O)c3ccc(Br)o3)C(C)C)n2)c1 8.91 µM [inhibitor, partial curve]
COC(=O)Cc1cc(=O)n2[nH]c(C)c(-c3ccccc3)c2n1 39.8 µM [inhibitor, single point]
CC(C)(C)c1ccc(C(=O)CS(=O)(=O)c2ccccc2)cc1 28.2 µM [inhibitor, single point]
Cc1cc(=O)oc2cc(Oc3ncccc3[N+](=O)[O-])ccc12 15.8 µM [inhibitor, partial curve]
COc1ccc(C(=O)Nc2ccc3c(c2)nc2n3CCSC2)cc1 31.6 µM [inhibitor, partial curve]
CCOc1cc(C2C3=C(CCCC3=O)NC3=C2C(=O)CCC3)ccc1OCCO 39.8 µM [inhibitor, single point]
Nc1nc2n(n1)C(c1ccco1)CC(c1ccc(Cl)c(Cl)c1)N2 (stereo not given) 14.1 µM [inhibitor, partial curve]
CC1=NN(c2ccc(C(=O)O)c(N)c2)C(=O)C1 22.4 µM [inhibitor, partial curve]
Cc1nn(C)cc1CN(C)C(=O)c1sc2cccc(Cl)c2c1Cl 17.8 µM [inhibitor, partial curve]
O=S(=O)(NC12CC3CC(CC(C3)C1)C2)c1ccc(F)cc1 35.5 µM [inhibitor, single point]
Cc1ccccc1C(=O)NC(=S)NCCC1=CCCCC1 28.2 µM [inhibitor, single point]
C=CCn1c(SCc2ccc3nonc3c2)nnc1-c1cccs1 39.8 µM [inhibitor, single point]
CC1CCCC(C)N1C(=O)CN1CCN(c2nc(-c3ccc(F)cc3)cs2)CC1 (stereo not given) 39.8 µM [inhibitor, single point]
COc1ccc(-n2c(C)cc(C3=NNC(=NC4CC4)SC3)c2C)cc1 11.2 µM [inhibitor, partial curve]
O=C1CCCC2=C1C(c1cccs1)n1nc(SCc3ccccc3F)nc1N2 (stereo not given) 35.5 µM [inhibitor, single point]
COc1ccc(S(=O)(=O)N(C)CC(=O)Nc2ccc3c(c2)OCO3)cc1OC 15.8 µM [inhibitor, partial curve, poor fit]
CCN(CC)C(=S)SCC(=O)c1ccc(F)cc1 39.8 µM [inhibitor, single point]
O=C(CSc1ccc(F)cc1)NC12CC3CC(CC(C3)C1)C2 25.1 µM [inhibitor, partial curve]
CCOc1nc(N2CCCCC2)nc(-n2cc(-c3ccccc3)nn2)n1 39.8 µM [inhibitor, single point]
COc1ncc2nc(-c3ccc(F)cc3)c(=O)n(C[C@H]3CCCO3)c2n1 28.2 µM [inhibitor, partial curve]
CC(=O)Nc1cc(-c2nn(C)c(=O)c3ccccc23)ccc1N1CCOCC1 28.2 µM [inhibitor, single point]

Potency, inactive:
Cn1c(O)c(N=NC(=S)Nc2ccccc2F)c2cc(S(=O)(=O)N3CCOCC3)ccc21
COc1ccc(NC(=O)Cc2coc3ccc4ccccc4c23)cc1S(=O)(=O)N1CCOCC1
COc1cc(NC(=O)c2cc3nc(-c4ccccc4)cc(-c4ccccc4)n3n2)cc(OC)c1OC
O=C(Cn1nc(C(=O)O)c2ccccc2c1=O)NCCC1=CCCCC1
O=C(c1ccc([N+](=O)[O-])cc1)N1CCSC1c1cccc(Cl)c1 (stereo not given)
O=c1cc(CSc2nc3ccccc3[nH]2)c2ccccc2[nH]1
COc1ccc(NC(=O)c2cccnc2NCCc2ccccc2)cc1
Cc1ccc(C(=O)Nc2ccc3cn[nH]c3c2)cc1S(=O)(=O)N1CCOCC1
CC(=O)Nc1cccc(Oc2ccc(-c3noc(C)n3)cc2)c1
Cc1ccc(C)c(NC(=O)c2cc(-c3cccnc3)nc3ccccc23)c1
CCCCC(=O)OCC(=O)Nc1ccc(C)c(F)c1

Potency, active:
COCc1[nH]nc2c1C(c1cccc(OC)c1)C(C#N)=C(N)O2 (stereo not given) 28.2 µM
CCCCNC(C(=O)Nc1cccc(S(=O)(=O)N2CCOCC2)c1)c1ccccc1 (stereo not given) 12.6 µM
CC(C)CCn1c(Sc2nc3ccccc3s2)nc2c1c(=O)[nH]c(=O)n2C 11.2 µM
CCOC(=O)N1CCN(Cc2ccc(O)c3ncccc23)CC1 25.1 µM
Cc1cc(C)cc(OCC(=O)O/N=C(\N)Cc2ccc([N+](=O)[O-])cc2)c1 10 µM
CC1CCCN(c2nc3c(c(=O)[nH]c(=O)n3C)n2Cc2ccccc2Cl)C1 (stereo not given) 10 µM
